# Laboratory results as given in the supplement of paper PMC12217912.
# This is one part of the list. Sequences were assembled here from the parent chain. Inactive controls read about 0.05.
# B1: TEV protease; numbered along this chain (parent)
# chain: MGESLFKGPRDYNPISSSICHLTNESDGHTTSLYGIGFGPFIITNKHLFRRNNGTLVVQSLHGVFKVKDTTTLQQHLVDGRDMIIIRMPKDFPPFPQKLKFREPQREERICLVTTNFQTKSMSSMVSDTSCTFPSGDGIFWKHWIQTKDGQCGSPLVSTRDGFIVGIHSASNFTNTNNYFTSVPKNFMELLTNQEAQQWVSGWRLNADSVLWGGHKVFMVKPEEPFQPVKEATQL
# Variants of: B1
# Assay: raw area under fraction-flipped curve 0-4 h after induction (AUC4h, not background-subtracted), DNA-recorder readout of cleavage of the substrate (dimensionless); higher = more cleavage of the substrate by the protease variant
# Conditions: temperature: 34 °C; time window: 0-4 h after rhamnose induction
# 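Note: Bxb1 expression induced with 0.2% (w/v) L-rhamnose at OD600 near 0.5, cultures sampled hourly, flipped fraction per protease–substrate barcode pair counted by paired-end Illumina sequencing.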
Variant,area with substrate ENLEFQS,area with substrate ENLFFQS,area with substrate ENLHFQS,area with substrate ENLIFQS,area with substrate ENLKFQS,area with substrate ENLMFQS,area with substrate ENLNFQS,area with substrate ENLQFQS,area with substrate ENLRFQS,area with substrate ENLSFQS,area with substrate ENLWFQS,area with substrate ENLDFQS,area with substrate ENLGFQS,area with substrate ENLTFQS,area with substrate ENLPFQS,area with substrate ENLVFQS,area with substrate ENLLFQS
I85M,0.0615,0.0753,0.0674,0.109,0.08,0.128,0.0705,0.0625,0.0728,0.0751,0.0697,–,–,–,–,–,–
S127Y,0.0683,0.102,0.0781,0.125,0.0643,–,–,–,–,0.0427,–,0.0562,0.0473,0.0522,–,–,–
M188Y,0.0816,0.0822,0.0378,–,0.0834,–,0.0637,–,0.0739,0.0651,0.0525,0.0681,0.076,–,0.071,0.0815,–
F163L,–,0.0859,0.0766,0.08,0.0894,–,0.0403,0.0487,0.0646,0.0594,0.0784,0.0662,–,–,–,–,–
L211C,–,0.0739,–,0.0631,0.0696,–,0.066,–,–,0.0651,0.0709,–,0.0533,–,0.0659,–,–
F140A,0.0603,0.0402,–,–,–,–,0.0386,–,0.0586,0.0593,–,0.0517,–,–,0.055,–,0.0609
Q118S,–,0.0741,0.0698,–,0.0662,–,0.0666,–,0.0773,0.066,–,–,–,–,0.0622,0.0876,–
K221D,–,0.078,0.0572,0.0839,0.0666,0.0607,0.0586,0.0438,–,0.0648,–,0.0592,–,–,0.0576,0.103,–
A207E,–,0.102,–,0.0904,0.078,–,0.0705,0.0756,–,–,0.0667,0.0576,–,–,–,–,–
A207Y,–,0.0694,–,0.0617,–,–,0.0532,–,–,–,0.0677,–,–,0.101,0.0703,–,–
R160H,–,–,–,0.105,0.0793,–,–,0.0732,0.0724,0.041,–,0.074,0.0329,–,–,–,0.0731
I164T,0.0563,0.072,0.0562,0.0505,0.081,–,0.061,–,0.0592,0.0479,0.0546,0.0605,–,–,0.0581,0.0736,0.0395
I164Y,0.0497,0.0574,0.0724,0.0437,0.058,–,0.053,–,–,–,0.0503,0.0629,–,–,0.0499,–,0.0732
F133Q,–,0.0703,–,0.092,0.065,–,–,0.0557,–,0.0713,–,0.0517,–,–,0.0752,–,–
D161H,0.0395,–,0.0683,–,0.0424,–,0.0502,–,0.0577,0.0587,–,–,–,–,0.0422,0.0478,–
L190G,0.0649,0.0678,–,0.0668,0.0638,0.0436,0.0677,0.0685,–,0.0547,0.0548,0.0667,–,0.0601,–,–,–
D137C,–,0.0883,0.0623,–,0.0839,–,–,–,0.0676,0.0698,0.0514,0.0604,–,–,–,0.0913,–
S182A,–,0.096,0.0667,–,–,–,0.064,–,–,0.0477,0.0731,0.0498,–,0.0742,–,–,0.0844
G214A,–,0.0704,0.0561,–,0.07,–,–,–,0.0426,0.068,0.0597,0.0591,–,–,0.0617,0.0757,0.0618
G8R,0.052,0.085,–,–,0.0855,–,–,–,–,–,–,–,–,0.0662,–,–,–
C131S,–,0.11,0.0677,–,–,–,0.0629,0.109,–,–,–,0.0748,–,–,–,–,–
